Reference: article PMC10716077
Where a chain is given by its changes, count along the chain named. Results are given in words; binding and its absence hold for the method and conditions named. Binding seen in cells or lysates may run through a third protein. Some binding calls cover weakened binding; strength is not graded here. Where a sequence is shown, tags or fusion partners need not be part of it.

Chains of the proteins cited; added tags and fusions are not shown. Residues count along the entry.
UniProt P04386, residues 768-881: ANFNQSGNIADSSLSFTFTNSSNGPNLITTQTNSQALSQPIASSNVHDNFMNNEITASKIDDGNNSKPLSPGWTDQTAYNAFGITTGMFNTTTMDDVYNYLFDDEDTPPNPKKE

B1: HA-Bdf1 (full-length), synthesized in S. cerevisiae (protein, UniProt P35817 1-686)
chain: MTDITPVQNDVDVNGNNVNDDVSSNLKRPIDQGDPSNGLAEEENPANNQLHLKKARLDGDALTSSPAGLAENGIEGATLAANGENGYNATGSGAEDEQQGLKKEEGGQGTKQEDLDENSKQELPMEVPKEPAPAPPPEPDMNNLPQNPIPKHQQKHALLAIKAVKRLKDARPFLQPVDPVKLDIPFYFNYIKRPMDLSTIERKLNVGAYEVPEQITEDFNLMVNNSIKFNGPNAGISQMARNIQASFEKHMLNMPAKDAPPVIAKGRRSSAQEDAPIVIRRAQTHNGRPKRTIHPPKSKDIYPYESKKPKSKRLQQAMKFCQSVLKELMAKKHASYNYPFLEPVDPVSMNLPTYFDYVKEPMDLGTIAKKLNDWQYQTMEDFERDVRLVFKNCYTFNPDGTIVNMMGHRLEEVFNSKWADRPNLDDYDSDEDSRTQGDYDDYESEYSESDIDETIITNPAIQYLEEQLARMKVELQQLKKQELEKIRKERRLARGSKKRGKRSKGRSGSKNASSKGRRDKKNKLKTVVTYDMKRIITERINDLPTSKLERAIDIIKKSMPNISEDDEVELDLDTLDNHTILTLYNTFFRQYESSSGASNGLDGTSGVTRDASSLSPTSAGSRKRRSKALSQEEQSRQIEKIKNKLAILDSASPLSQNGSPGQIQSAAHNGFSSSSDDDVSSESEEE
B2: HA-Toa1 synthesized in yeast (MET25-HA3-TOA1) (protein, UniProt P32773 1-286)
chain: MSNAEASRVYEIIVESVVNEVREDFENAGIDEQTLQDLKNIWQKKLTETKVTTFSWDNQFNEGNINGVQNDLNFNLATPGVNSSEFNIKEENTGNEGLILPNINSNNNIPHSGETNINTNTVEATNNSGATLNTNTSGNTNADVTSQPKIEVKPEIELTINNANITTVENIDDESEKKDDEEKEEDVEKTRKEKEQIEQVKLQAKKEKRSALLDTDEVGSELDDSDDDYLISEGEEDGPDENLMLCLYDKVTRTKARWKCSLKDGVVTINRNDYTFQKAQVEAEWV
B3: HA-Toa1 synthesized in E. coli (HA3-TOA1) (protein, UniProt P32773 1-286)
chain: B2 chain
B4: HA3-Toa1 aa 144–286 (domain or fragment, UniProt P32773 144-286)
chain: VTSQPKIEVKPEIELTINNANITTVENIDDESEKKDDEEKEEDVEKTRKEKEQIEQVKLQAKKEKRSALLDTDEVGSELDDSDDDYLISEGEEDGPDENLMLCLYDKVTRTKARWKCSLKDGVVTINRNDYTFQKAQVEAEWV
B5: HA-Toa1 aa 210–286 (domain or fragment, UniProt P32773 210-286)
chain: SALLDTDEVGSELDDSDDDYLISEGEEDGPDENLMLCLYDKVTRTKARWKCSLKDGVVTINRNDYTFQKAQVEAEWV
B6: HA-Bdf2 (full-length), synthesized in S. cerevisiae (protein, UniProt Q07442 1-638)
chain: MSRTNMDTRHAHSALLAAPQSATANSRSSNSSSESSSNKNNINVGVGDDSGNVSAVSIDDGPHFRDIFHYGHEENYKLASSGITNLNSSSHAHQTLSPISISNASTPESFPEHPLGLERETEPALEAEMEAEELPPHQSKYLLSSIKATKRLKDARPFLKPVDPIALNIPHYFNYVQTPMDLSLIETKLQGNVYHSVEQVTSDFKTMVDNCLNFNGPESSISSMAKRIQKYFEKKLSAMPPRVLPASALKKTSRNRKKNEDMDSPLVIRRSVSTTNDNIGESGNREGVSGGRPKRTIHPPKSKDLFDIYENSKPKSKTLQKKFRTCLKILKVLMSKKNSDINFPFLQPVDPIALNLPNYFDVVKNPMDLGTISNNLMNWKYKTIDQFVDDLNLVFYNCFQFNPEGNEVHSMGKKLKELFNFHWLENQDILNEIETDSDLEEDNYSSSYSSDDEYDDEDINENDITNPAIQYLEQKLKKMEVELQQLKRQELSKLSKERKRKHLGKTLLRRKAMKHSVDDLKKSITDKINELSDLEMNGMIRIIKNSLPADEILTSNEDEIEIDLDILDEATIARIYERYFEKKNNNNSKRKLSGNYSTAPTNKKKKTLKFLEKDEIINNNNYSDSEEDSSDSSDSDSD

Assays:
[1] = molecular target: T1, GST–Rap1 TAD (aa 630–671) (S. cerevisiae) (UniProt P11938); assay: pull-down; GST fusions (from E. coli) immobilized on GSH sepharose, incubated with total protein extract from S. cerevisiae transformants containing the HA fusion; washed twice with buffer A1, eluted with free GSH; anti-HA blot; only the target purified
T1 sequence: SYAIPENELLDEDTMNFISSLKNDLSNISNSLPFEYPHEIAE

[2] = molecular target: T2, GST–Swi5 TAD (aa 1–85) (S. cerevisiae) (UniProt P08153); assay: as above
T2 sequence: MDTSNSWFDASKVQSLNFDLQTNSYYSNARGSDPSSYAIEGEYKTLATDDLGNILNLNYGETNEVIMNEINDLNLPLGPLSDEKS

[3] = molecular target: GST–Gal4 TAD (aa 768–881) (S. cerevisiae) (UniProt P04386); assay: as above
[4] = molecular target: T3, GST–Leu3 TAD (aa 841–886) (S. cerevisiae) (UniProt P08638); assay: as above
T3 sequence: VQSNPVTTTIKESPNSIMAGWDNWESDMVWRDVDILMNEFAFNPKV

[5] = molecular target: T4, GST–Ino2 TAD1 (aa 1–35) (S. cerevisiae) (UniProt P26798); assay: as above
T4 sequence: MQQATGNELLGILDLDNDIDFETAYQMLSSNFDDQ

[6] = molecular target: T5, GST–Flo8 TAD (aa 726–799) (S. cerevisiae) (UniProt P40068); assay: as above
T5 sequence: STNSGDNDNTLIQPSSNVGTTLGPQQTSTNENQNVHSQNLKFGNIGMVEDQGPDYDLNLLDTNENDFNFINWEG

[7] = molecular target: T6, GST–Aro80 TAD (aa 846–950) (S. cerevisiae) (UniProt Q04052); assay: as above
T6 sequence: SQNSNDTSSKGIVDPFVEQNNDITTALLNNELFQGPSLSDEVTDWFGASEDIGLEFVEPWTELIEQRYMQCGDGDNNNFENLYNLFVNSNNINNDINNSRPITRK

[8] = molecular target: T7, GST–Ino2 TAD2 (aa 101–135) (S. cerevisiae) (UniProt P26798); assay: as above
T7 sequence: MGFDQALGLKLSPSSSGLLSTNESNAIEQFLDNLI

[9] = molecular target: T8, GST–Ino2 TAD1 D20K (S. cerevisiae) (UniProt P26798); assay: as above
T8 sequence: T4 sequence with D20K

[10] = molecular target: T9, GST–Ino2 TAD1 F21R (S. cerevisiae) (UniProt P26798); assay: as above
T9 sequence: T4 sequence with F21R

[11] = molecular target: T10, GST–Ino2 (comprising TAD1 + TAD2, aa 1–135) (S. cerevisiae) (UniProt P26798); assay: as above
T10 sequence: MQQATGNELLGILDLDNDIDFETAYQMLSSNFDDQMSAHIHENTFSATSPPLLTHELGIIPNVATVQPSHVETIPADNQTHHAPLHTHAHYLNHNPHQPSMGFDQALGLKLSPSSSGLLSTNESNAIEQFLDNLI

[12] = molecular target: T1, GST–Rap1 TAD (aa 630–671) (S. cerevisiae); assay: pull-down; GST fusions (from E. coli) immobilized on GSH sepharose, incubated with total protein extract from E. coli containing the HA fusion; washed twice with buffer A1, eluted with free GSH; anti-HA blot; only the target purified
[13] = molecular target: T2, GST–Swi5 TAD (aa 1–85) (S. cerevisiae); assay: as above
[14] = molecular target: T3, GST–Leu3 TAD (aa 841–886) (S. cerevisiae); assay: as above
[15] = molecular target: T4, GST–Ino2 TAD1 (aa 1–35) (S. cerevisiae); assay: as above
[16] = molecular target: T5, GST–Flo8 TAD (aa 726–799) (S. cerevisiae); assay: as above
[17] = molecular target: T6, GST–Aro80 TAD (aa 846–950) (S. cerevisiae); assay: as above
[18] = molecular target: T10, GST–Ino2 (comprising TAD1 + TAD2, aa 1–135) (S. cerevisiae); assay: as above
[19] = molecular target: T7, GST–Ino2 TAD2 (aa 101–135) (S. cerevisiae); assay: as above

| Binder | binding [5] | binding [8] | binding [15] | binding [18] | binding [19] | also measured |
| --- | --- | --- | --- | --- | --- | --- |
| B1 | no binding | binds | – | – | – | binding [1]: binds; binding [2]: no binding; binding [3]: binds; binding [4]: binds; binding [6]: binds; binding [7]: no binding |
| B2 | binds | binds | – | – | – | binding [9]: no binding; binding [10]: no binding; binding [11]: binds |
| B3 | – | – | binds | binds | binds | binding [12]: binds; binding [13]: no binding; binding [14]: binds; binding [16]: binds; binding [17]: no binding |
| B4 | – | – | binds | binds | binds | – |
| B5 | – | – | binds | binds | binds | – |
| B6 | – | no binding | – | – | – | – |
